Measured values as given in PMC12820563, “FoxP3 forms a head-to-head dimer in vivo and stabilizes its multimerization on adjacent microsatellites”.
Some of the results follow.

Target: T1, MBP-FoxP1dN (Mus musculus, UniProt P58462 326-579)
T1 sequence: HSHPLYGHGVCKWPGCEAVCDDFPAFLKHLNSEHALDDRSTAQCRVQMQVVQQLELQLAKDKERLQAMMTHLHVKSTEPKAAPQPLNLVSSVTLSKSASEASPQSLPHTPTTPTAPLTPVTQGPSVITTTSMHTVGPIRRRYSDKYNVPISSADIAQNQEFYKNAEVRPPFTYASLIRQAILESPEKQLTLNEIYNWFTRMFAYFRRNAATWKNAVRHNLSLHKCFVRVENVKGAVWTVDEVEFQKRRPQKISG
Test: PD-seq (MBP pull-down with sequencing); 20 mM Tris-HCl pH 7.5, 100 mM NaCl, 1.5 mM MgCl2, 0.4 uM protein, 0.1 uM dsDNA library, 30 min, room temperature, amylose pull-down; high values mean tight binding
Conditions: protein: recombinant; tags: His6-MBP; chain copies: 2; dsDNA, one strand shown
Procedure, shortened: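 His6-MBP-tagged mouse FoxP3 or FoxP1 fragment lacking the N-terminus, expressed in E. coli, was mixed at 0.4 µM with 0.1 µM Klenow-filled double-stranded degenerate DNA library. Incubation was 30 min at room temperature in Tris pH 7.5 buffer with NaCl and MgCl2. Complexes were caught on amylose resin and washed three times; DNA was released with proteinase K, PCR-barcoded and Illumina-sequenced. Binding is reads-per-million enrichment, pull-down over input, with replicates pooled.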

Sequence | binding signal
GATGATTGTTCTCCCAGCTGATGAATTTGCGACCTCGAGTAAACAAATTTTCCTAATCTTTCTGTTCAAGCGCCATCTAC | 0.925 RPM ratio (pull-down/input)
GATGATTGTTCTCCCAGCTGATGAATTAAGGGAATCGAGTAAACAAATTTTCCTAATCTTTCTGTTCAAGCGCCATCTAC | 0.93 RPM ratio (pull-down/input)
GATGATTGTTCTCCCAGCTGATGAATTATTAGTGTCGAGTAAACAAATTTTCCTAATCTTTCTGTTCAAGCGCCATCTAC | 1.3 RPM ratio (pull-down/input)
GATGATTGTTCTCCCAGCTGATGAATTCGAGTAGTCGAGTAAACAAATTTTCCTAATCTTTCTGTTCAAGCGCCATCTAC | 0.869 RPM ratio (pull-down/input)
GATGATTGTTCTCCCAGCTGATGAATTCTGCATATCGAGTAAACAAATTTTCCTAATCTTTCTGTTCAAGCGCCATCTAC | 0.96 RPM ratio (pull-down/input)
GATGATTGTTCTCCCAGCTGATGAATTGGATATCTCGAGTAAACAAATTTTCCTAATCTTTCTGTTCAAGCGCCATCTAC | 0.793 RPM ratio (pull-down/input)
GATGATTGTTCTCCCAGCTGATGAATTATCGAACTCGAGTAAACAAATTTTCCTAATCTTTCTGTTCAAGCGCCATCTAC | 0.976 RPM ratio (pull-down/input)
GATGATTGTTCTCCCAGCTGATGAATTGCTAGGCTCGAGTAAACAAATTTTCCTAATCTTTCTGTTCAAGCGCCATCTAC | 0.84 RPM ratio (pull-down/input)
GATGATTGTTCTCCCAGCTGATGAATTAGTGTGCTCGAGTAAACAAATTTTCCTAATCTTTCTGTTCAAGCGCCATCTAC | 0.982 RPM ratio (pull-down/input)
GATGATTGTTCTCCCAGCTGATGAATTTACTAGCTCGAGTAAACAAATTTTCCTAATCTTTCTGTTCAAGCGCCATCTAC | 1.14 RPM ratio (pull-down/input)
GATGATTGTTCTCCCAGCTGATGAATTACTCATCTCGAGTAAACAAATTTTCCTAATCTTTCTGTTCAAGCGCCATCTAC | 1.06 RPM ratio (pull-down/input)
GATGATTGTTCTCCCAGCTGATGAATTCCGGTACTCGAGTAAACAAATTTTCCTAATCTTTCTGTTCAAGCGCCATCTAC | 0.855 RPM ratio (pull-down/input)
GATGATTGTTCTCCCAGCTGATGAATTAGTCGCATCGAGTAAACAAATTTTCCTAATCTTTCTGTTCAAGCGCCATCTAC | 1.23 RPM ratio (pull-down/input)
GATGATTGTTCTCCCAGCTGATGAATTGAAGATTTCGAGTAAACAAATTTTCCTAATCTTTCTGTTCAAGCGCCATCTAC | 0.9 RPM ratio (pull-down/input)
GATGATTGTTCTCCCAGCTGATGAATTAACACTATCGAGTAAACAAATTTTCCTAATCTTTCTGTTCAAGCGCCATCTAC | 1.08 RPM ratio (pull-down/input)
GATGATTGTTCTCCCAGCTGATGAATTAGACTCATCGAGTAAACAAATTTTCCTAATCTTTCTGTTCAAGCGCCATCTAC | 0.943 RPM ratio (pull-down/input)
GATGATTGTTCTCCCAGCTGATGAATTCCAATAATCGAGTAAACAAATTTTCCTAATCTTTCTGTTCAAGCGCCATCTAC | 1.1 RPM ratio (pull-down/input)
GATGATTGTTCTCCCAGCTGATGAATTAGCCTCTTCGAGTAAACAAATTTTCCTAATCTTTCTGTTCAAGCGCCATCTAC | 0.925 RPM ratio (pull-down/input)
GATGATTGTTCTCCCAGCTGATGAATTCGGGCATTCGAGTAAACAAATTTTCCTAATCTTTCTGTTCAAGCGCCATCTAC | 1.01 RPM ratio (pull-down/input)
GATGATTGTTCTCCCAGCTGATGAATTCCAGAACTCGAGTAAACAAATTTTCCTAATCTTTCTGTTCAAGCGCCATCTAC | 0.723 RPM ratio (pull-down/input)
GATGATTGTTCTCCCAGCTGATGAATTCTGTCGGTCGAGTAAACAAATTTTCCTAATCTTTCTGTTCAAGCGCCATCTAC | 0.838 RPM ratio (pull-down/input)

Sequence | binding signal
GATGATTGTTCTCCCAGCTGATGAATTGTCACAATCGAGTAAACAAATTTTCCTAATCTTTCTGTTCAAGCGCCATCTAC | 1.58 RPM ratio (pull-down/input)
GATGATTGTTCTCCCAGCTGATGAATTCCAACAATCGAGTAAACAAATTTTCCTAATCTTTCTGTTCAAGCGCCATCTAC | 1.27 RPM ratio (pull-down/input)
GATGATTGTTCTCCCAGCTGATGAATTCAGCACTTCGAGTAAACAAATTTTCCTAATCTTTCTGTTCAAGCGCCATCTAC | 0.847 RPM ratio (pull-down/input)
GATGATTGTTCTCCCAGCTGATGAATTGATGTTTTCGAGTAAACAAATTTTCCTAATCTTTCTGTTCAAGCGCCATCTAC | 2.82 RPM ratio (pull-down/input)
GATGATTGTTCTCCCAGCTGATGAATTTGGGGGGTCGAGTAAACAAATTTTCCTAATCTTTCTGTTCAAGCGCCATCTAC | 0.775 RPM ratio (pull-down/input)
GATGATTGTTCTCCCAGCTGATGAATTGTAACATTCGAGTAAACAAATTTTCCTAATCTTTCTGTTCAAGCGCCATCTAC | 1.4 RPM ratio (pull-down/input)
GATGATTGTTCTCCCAGCTGATGAATTACTAGAATCGAGTAAACAAATTTTCCTAATCTTTCTGTTCAAGCGCCATCTAC | 1.23 RPM ratio (pull-down/input)
GATGATTGTTCTCCCAGCTGATGAATTTTGTAGATCGAGTAAACAAATTTTCCTAATCTTTCTGTTCAAGCGCCATCTAC | 0.951 RPM ratio (pull-down/input)
GATGATTGTTCTCCCAGCTGATGAATTCTATCACTCGAGTAAACAAATTTTCCTAATCTTTCTGTTCAAGCGCCATCTAC | 0.873 RPM ratio (pull-down/input)
GATGATTGTTCTCCCAGCTGATGAATTAACCTGCTCGAGTAAACAAATTTTCCTAATCTTTCTGTTCAAGCGCCATCTAC | 0.79 RPM ratio (pull-down/input)
GATGATTGTTCTCCCAGCTGATGAATTGAATAAGTCGAGTAAACAAATTTTCCTAATCTTTCTGTTCAAGCGCCATCTAC | 0.918 RPM ratio (pull-down/input)
GATGATTGTTCTCCCAGCTGATGAATTCTCACTTTCGAGTAAACAAATTTTCCTAATCTTTCTGTTCAAGCGCCATCTAC | 0.899 RPM ratio (pull-down/input)
GATGATTGTTCTCCCAGCTGATGAATTAAACTGGTCGAGTAAACAAATTTTCCTAATCTTTCTGTTCAAGCGCCATCTAC | 0.847 RPM ratio (pull-down/input)
GATGATTGTTCTCCCAGCTGATGAATTACCCATCTCGAGTAAACAAATTTTCCTAATCTTTCTGTTCAAGCGCCATCTAC | 0.901 RPM ratio (pull-down/input)
GATGATTGTTCTCCCAGCTGATGAATTCCTAAAGTCGAGTAAACAAATTTTCCTAATCTTTCTGTTCAAGCGCCATCTAC | 0.796 RPM ratio (pull-down/input)
GATGATTGTTCTCCCAGCTGATGAATTAGGCTAATCGAGTAAACAAATTTTCCTAATCTTTCTGTTCAAGCGCCATCTAC | 0.966 RPM ratio (pull-down/input)
GATGATTGTTCTCCCAGCTGATGAATTTACCGCCTCGAGTAAACAAATTTTCCTAATCTTTCTGTTCAAGCGCCATCTAC | 1.17 RPM ratio (pull-down/input)
GATGATTGTTCTCCCAGCTGATGAATTCAAGGACTCGAGTAAACAAATTTTCCTAATCTTTCTGTTCAAGCGCCATCTAC | 0.841 RPM ratio (pull-down/input)
GATGATTGTTCTCCCAGCTGATGAATTCCGGGGCTCGAGTAAACAAATTTTCCTAATCTTTCTGTTCAAGCGCCATCTAC | 0.755 RPM ratio (pull-down/input)
GATGATTGTTCTCCCAGCTGATGAATTTGCGACTTCGAGTAAACAAATTTTCCTAATCTTTCTGTTCAAGCGCCATCTAC | 1.14 RPM ratio (pull-down/input)
GATGATTGTTCTCCCAGCTGATGAATTATCAGAGTCGAGTAAACAAATTTTCCTAATCTTTCTGTTCAAGCGCCATCTAC | 0.888 RPM ratio (pull-down/input)

Sequence | binding signal
GATGATTGTTCTCCCAGCTGATGAATTGATCGAATCGAGTAAACAAATTTTCCTAATCTTTCTGTTCAAGCGCCATCTAC | 1.11 RPM ratio (pull-down/input)
GATGATTGTTCTCCCAGCTGATGAATTGTATTTATCGAGTAAACAAATTTTCCTAATCTTTCTGTTCAAGCGCCATCTAC | 2.72 RPM ratio (pull-down/input)
GATGATTGTTCTCCCAGCTGATGAATTTCACGCCTCGAGTAAACAAATTTTCCTAATCTTTCTGTTCAAGCGCCATCTAC | 0.864 RPM ratio (pull-down/input)
GATGATTGTTCTCCCAGCTGATGAATTTACCAATTCGAGTAAACAAATTTTCCTAATCTTTCTGTTCAAGCGCCATCTAC | 1.48 RPM ratio (pull-down/input)
GATGATTGTTCTCCCAGCTGATGAATTTCCGCGCTCGAGTAAACAAATTTTCCTAATCTTTCTGTTCAAGCGCCATCTAC | 0.891 RPM ratio (pull-down/input)
GATGATTGTTCTCCCAGCTGATGAATTATCCGGATCGAGTAAACAAATTTTCCTAATCTTTCTGTTCAAGCGCCATCTAC | 0.88 RPM ratio (pull-down/input)
GATGATTGTTCTCCCAGCTGATGAATTACCGATTTCGAGTAAACAAATTTTCCTAATCTTTCTGTTCAAGCGCCATCTAC | 1.05 RPM ratio (pull-down/input)
GATGATTGTTCTCCCAGCTGATGAATTCCAAAGATCGAGTAAACAAATTTTCCTAATCTTTCTGTTCAAGCGCCATCTAC | 0.913 RPM ratio (pull-down/input)
GATGATTGTTCTCCCAGCTGATGAATTAGATGTCTCGAGTAAACAAATTTTCCTAATCTTTCTGTTCAAGCGCCATCTAC | 0.931 RPM ratio (pull-down/input)
GATGATTGTTCTCCCAGCTGATGAATTTGCACAGTCGAGTAAACAAATTTTCCTAATCTTTCTGTTCAAGCGCCATCTAC | 0.979 RPM ratio (pull-down/input)
GATGATTGTTCTCCCAGCTGATGAATTTCCTTCATCGAGTAAACAAATTTTCCTAATCTTTCTGTTCAAGCGCCATCTAC | 0.931 RPM ratio (pull-down/input)
GATGATTGTTCTCCCAGCTGATGAATTTGTTTCTTCGAGTAAACAAATTTTCCTAATCTTTCTGTTCAAGCGCCATCTAC | 1.7 RPM ratio (pull-down/input)
GATGATTGTTCTCCCAGCTGATGAATTTGCGTTGTCGAGTAAACAAATTTTCCTAATCTTTCTGTTCAAGCGCCATCTAC | 1.29 RPM ratio (pull-down/input)
GATGATTGTTCTCCCAGCTGATGAATTCGGACGTTCGAGTAAACAAATTTTCCTAATCTTTCTGTTCAAGCGCCATCTAC | 0.853 RPM ratio (pull-down/input)
GATGATTGTTCTCCCAGCTGATGAATTGAGCAGGTCGAGTAAACAAATTTTCCTAATCTTTCTGTTCAAGCGCCATCTAC | 0.751 RPM ratio (pull-down/input)
GATGATTGTTCTCCCAGCTGATGAATTCGACTGATCGAGTAAACAAATTTTCCTAATCTTTCTGTTCAAGCGCCATCTAC | 0.864 RPM ratio (pull-down/input)
GATGATTGTTCTCCCAGCTGATGAATTGAGGGCTTCGAGTAAACAAATTTTCCTAATCTTTCTGTTCAAGCGCCATCTAC | 0.758 RPM ratio (pull-down/input)
GATGATTGTTCTCCCAGCTGATGAATTGTGGGGGTCGAGTAAACAAATTTTCCTAATCTTTCTGTTCAAGCGCCATCTAC | 0.889 RPM ratio (pull-down/input)
GATGATTGTTCTCCCAGCTGATGAATTGCCTCAATCGAGTAAACAAATTTTCCTAATCTTTCTGTTCAAGCGCCATCTAC | 1.02 RPM ratio (pull-down/input)
GATGATTGTTCTCCCAGCTGATGAATTTCGACTCTCGAGTAAACAAATTTTCCTAATCTTTCTGTTCAAGCGCCATCTAC | 0.73 RPM ratio (pull-down/input)
GATGATTGTTCTCCCAGCTGATGAATTCGTGATTTCGAGTAAACAAATTTTCCTAATCTTTCTGTTCAAGCGCCATCTAC | 1.02 RPM ratio (pull-down/input)
